# Experimental data reported in PubChem BioAssay AID488969 (Vanderbilt High Throughput Screening Facility, 2010).
# Over roughly 110,000 compounds, “z-score” has its median near -0.1; the highest 2% begin near 2. Some of the results follow. Active and inactive are the calls of the source.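 Rule for the calls: active = z-score in the third read window above 3 or below -3; inactive = the rest.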
# Target: Metabotropic glutamate receptor 8 (Rattus norvegicus) (UniProt P70579)
# Assay: rat mGluR8 modulators via GIRK flux, primary screen, cell-based, thallium flux, HTS (AID 488969)
# Conditions: HEK293 rat mGluR8, GIRK (G protein-gated inwardly rectifying potassium channel) thallium flux, FluoZin2; at 10 µM; stronger effect = higher value; submaximal glutamate (EC20) added with thallium
# UniProt P70579, sequence (P70579 whole entry, looked up): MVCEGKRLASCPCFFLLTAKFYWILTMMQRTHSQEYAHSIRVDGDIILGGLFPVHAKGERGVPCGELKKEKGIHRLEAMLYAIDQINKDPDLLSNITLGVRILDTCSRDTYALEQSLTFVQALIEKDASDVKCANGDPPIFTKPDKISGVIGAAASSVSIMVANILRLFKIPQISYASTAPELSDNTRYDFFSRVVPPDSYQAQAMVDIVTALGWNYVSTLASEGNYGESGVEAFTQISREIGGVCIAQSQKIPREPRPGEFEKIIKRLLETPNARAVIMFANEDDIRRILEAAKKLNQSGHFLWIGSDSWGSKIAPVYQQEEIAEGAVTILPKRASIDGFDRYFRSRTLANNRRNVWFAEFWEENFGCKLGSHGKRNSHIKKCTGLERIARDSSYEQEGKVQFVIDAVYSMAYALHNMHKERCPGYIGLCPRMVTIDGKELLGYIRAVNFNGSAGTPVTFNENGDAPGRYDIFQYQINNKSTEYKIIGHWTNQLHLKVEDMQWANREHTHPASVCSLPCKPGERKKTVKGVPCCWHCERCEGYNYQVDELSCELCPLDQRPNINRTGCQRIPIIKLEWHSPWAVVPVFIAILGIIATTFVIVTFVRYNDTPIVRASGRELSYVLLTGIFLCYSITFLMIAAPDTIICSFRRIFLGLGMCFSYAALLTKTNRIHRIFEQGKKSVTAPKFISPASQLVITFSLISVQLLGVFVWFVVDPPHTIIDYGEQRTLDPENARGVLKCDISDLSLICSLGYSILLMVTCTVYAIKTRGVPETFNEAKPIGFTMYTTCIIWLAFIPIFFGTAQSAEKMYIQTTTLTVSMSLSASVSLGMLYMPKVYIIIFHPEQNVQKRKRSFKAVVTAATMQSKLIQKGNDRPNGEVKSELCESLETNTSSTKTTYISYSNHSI
row,SMILES,z-score
1,O=C(NCc1cccs1)NC1CCCCC1,-0.103
2,COc1ccc(F)cc1S(=O)(=O)N1CCC(C(N)=O)CC1,-0.254
3,CC(C)(C)c1ccc(/C=C/C(=O)N2CCOCC2)cc1,-0.28
4,CCCCCCc1ccc(-c2ncc(N)cn2)cc1,0.186
5,O=C(O)C1CC=CCC1C(=O)N1CCCC1 (configuration not stated),0.135
6,CCc1ccccc1NC(=O)CSc1n[nH]c(C)c1[N+](=O)[O-],-0.481
7,COc1ccc(S(=O)(=O)NC(CC(=O)NCc2ccco2)C(C)C)cc1 (configuration not stated),0.189
8,CCn1c(=N)n(CC(=O)c2ccc(OC)c(OC)c2)c2ccccc21,0.42
9,CC(=O)Nc1c(-c2ccccc2)nc2ncccn12,2.69
10,NC(=O)c1ccsc1NC(=O)COC(=O)Cc1ccsc1,-0.111
11,CC1(C)Cc2ccccc2C(NNC(=O)c2ccncc2)=N1,-0.178
12,Cc1ccccc1Nc1c(-c2ccncc2)nc2ccc(Br)cn12,-0.114
13,Cc1nc2ccc(Cl)cc2c(-c2ccccc2Cl)c1CC(=O)O,-0.187
14,Cc1ccc(S(=O)(=O)NCC(=O)NCc2ccncc2)cc1,0.0563
15,CC(c1cccnc1)N(CCN(C)C)C(=O)Nc1ccc(Cl)cc1 (configuration not stated),-0.337
16,Cc1ccc(C)n1NC(=O)c1ccccc1O,0.41
17,CCCCNS(=O)(=O)c1ccc(OC)cc1,-0.0131
18,Cn1c(=O)c(-c2cc(Br)ccc2N)nc2ccccc21,-0.264
19,Cc1cc(NC(=O)CSc2nc3ccccc3c(=O)n2Cc2ccccc2)no1,active: 4.05
20,CCOc1ccc(Br)cc1/C=N/O,-0.187
21,CCc1nnc(NC(=O)[C@@H]2CCCN2S(=O)(=O)c2ccc3c(c2)OCCO3)s1,0.228
22,O=C(Nc1ccccc1N1CCN(C(=O)c2ccc(Cl)cc2)CC1)c1cc(Br)ccc1Cl,-0.323
23,COc1ccc(C(=O)Nc2c(Cl)cc(Cl)cc2C(=O)N2CCC(C)CC2)cc1,-0.343
24,COC(=O)c1ccc(CSc2nc3ccccc3s2)o1,-0.313

row,SMILES,z-score
1,CS(=O)(=O)N(Cc1ccccc1)c1ccccc1C(=O)O,-0.0382
2,Cc1csc(SC(C)C(=O)Nc2ccc(Cl)cn2)n1 (configuration not stated),0.168
3,O=C(c1cc2cc(Br)ccc2oc1=O)N1CCN(c2ccccn2)CC1,-0.629
4,Cn1c(=O)c2c(ncn2CC(=O)N2CCOCC2)n(C)c1=O,0.0191
5,COc1ccc(-c2noc(CCC(=O)NCCCN3CCC(Cc4ccccc4)CC3)n2)cc1,0.241
6,CCCCS(=O)(=O)/C=C/[C@H]1[C@H](S(=O)(=O)CCCC)[C@H]2C=C[C@@H]1C2,-0.0773
7,CCOC(=O)N1CCC(N2Cc3cccc(C(=O)Nc4ccc(F)cc4)c3C2=O)CC1,0.0504
8,C=CCn1cc(C(=O)NCCOC)c(=O)c2cc(S(=O)(=O)N(CC)CC)ccc21,-0.181
9,CSCCC(NS(=O)(=O)c1ccc(Cl)cc1)C(=O)OCC(=O)NC12CC3CC(CC(C3)C1)C2 (configuration not stated),0.328
10,COC(=O)c1c(NC(=O)c2ccccc2)sc(Cc2ccccc2)c1C,-0.0779
11,COc1ccc(NC(=O)Cn2nc(C(F)(F)F)c3c2CCCC3)c(OC)c1,-0.251
12,Cc1cc(C)nc(NC(=O)c2cnc3sccn3c2=O)n1,-0.0765
13,COc1ccc(C2C(C(=O)N3CCOCC3)=C(C)NC3=C2C(=O)CC(C)(C)C3)cc1O (configuration not stated),-0.281
14,CCOC(=O)C1CCN(C(=O)CSc2cc(=O)n(CC)c3ccccc23)CC1,0.042
15,CCN(CC)Cc1c(O)c(Cl)cc2c3c(c(=O)oc12)CCCC3,-0.137
16,Cc1ccc(S(=O)(=O)Nc2ccc(NC(=O)CN3CCCCC3)cc2)cc1,0.237
17,CC(=O)Nc1cc(C(F)(F)F)ccc1N1CCOCC1,0.184
18,COc1cc(C(C(=O)NC(C)(C)C)N(C(=O)CNC(=O)c2cccs2)c2ccccc2)cc(OC)c1OC (configuration not stated),-0.83
19,CCCCn1c(SCc2ncc(-c3ccccc3)o2)nc2cc(S(N)(=O)=O)ccc21,0.216
20,CC(=O)Nc1ccc(OCC(=O)c2cc(C)ccc2C)cc1,-0.144
21,O=C(COC(=O)c1ccccc1)NCC1CCCO1 (configuration not stated),-0.112
22,CCCCCCCCc1nc(=S)[nH][nH]1,active: 15.3
23,Cc1cc(C)nc(NC(=O)c2cc(-c3ccc(C)s3)nc3ccccc23)c1,-0.437
24,CCN(CC(=O)NCCc1ccc(S(N)(=O)=O)cc1)Cc1nc2ccccc2c(=O)[nH]1,-0.0392

row,SMILES,z-score
1,Cc1ccc(-c2nn3c(C)nnc3s2)cc1NCc1c(F)cccc1Cl,1.04
2,Cn1ncc(C#N)c1/N=C/N1CCCCCC1,0.0919
3,N#Cc1ccccc1NC(=O)CSc1nnc(-c2ccccc2O)n1-c1ccccc1,-0.752
4,Cc1ccc(CNC(=O)Cc2nc3nc(C)cc(C)n3n2)cc1,-0.0287
5,O=C(NCc1cccnc1)C(=O)NCC(c1ccco1)N1CCN(c2ccccc2F)CC1 (configuration not stated),-0.0446
6,CCCC(=O)n1nc(-c2ccc(Cl)cc2)nc1SC,-0.0675
7,O=C(C1CCN(C2CC(=O)N(c3cccc(Cl)c3)C2=O)CC1)N1CCCC1 (configuration not stated),-0.132
8,CCNC(=O)NC(=O)C(C)OC(=O)C1CCN(S(=O)(=O)c2ccc(C)c(C)c2)CC1 (configuration not stated),-0.143
9,Nc1nc(N2CCOCC2)cc(=O)[nH]1,0.0966
10,CCOC(=O)c1cc(C)n(Cc2cccc(OC)c2OC)c1C,-0.234
11,CC1CC1C(=O)OCC(=O)NCc1ccc(Cl)cc1Cl (configuration not stated),-0.0696
12,Cc1ccnc(NC(=O)CCC(=O)N(CC(=O)NCCc2ccccc2)Cc2ccco2)c1,-1.16
13,O=C(NC1CCCC1)c1cccc(NC(=O)c2ccco2)c1,0.253
14,COc1ccc(C2CC(c3cccc(C)c3)n3ncnc3N2)cc1 (configuration not stated),0.0466
15,O=C1c2ccccc2C(Nc2ccc(S(=O)(=O)N3CCCCC3)cc2)N1Cc1ccco1 (configuration not stated),0.0215
16,CCOC(=O)c1ccc(NC(=O)N2CCCCC2)cc1,0.0782
17,O=C(CCNC(=O)c1ccccc1Cl)Nc1nc(-c2ccc(F)cc2)cs1,-0.467
18,Cn1c(SCC(=O)NCCc2ccccc2)nnc1-c1ccncc1,-0.197
19,Cc1cc2n(n1)C(c1c[nH]c3ccccc13)Nc1ccccc1-2 (configuration not stated),0.517
20,Cc1ccc(OCc2nnc(SCC(=O)c3ccccc3)n2Cc2ccco2)cc1,-0.406
21,CN(C)CCNc1oc(-c2cccc(Cl)c2)nc1C#N,2.54
22,COC(=O)Cn1c2ccccc2c2nc(C)sc21,0.312
23,COC(=O)Nc1ccc(S(=O)(=O)NCCO)cc1,-0.00223
24,CC(=O)Nc1ccc(S(=O)(=O)NCC(=O)OCC(=O)NC23CC4CC(CC(C4)C2)C3)cc1,0.517
